# From the supplement of paper PMC8728848
# This is one part of the list.
# Columns and labels:
# Assay in all cases: glycan array binding signal (z-score within array); higher = stronger binding
# Conditions in all cases: glycan notation: IUPAC condensed, linker removed
# [1] = target: Gal(b1-4)GlcNAc(b1-2)[Gal(b1-4)GlcNAc(b1-6)]Man(a1-6)[Gal(b1-4)GlcNAc(b1-2)Man(a1-3)]Man(b1-4)GlcNAc(b1-4)[Fuc(a1-6)]GlcNAc
# Method in brief: (§1)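 Glycan array binding is given as a within-array Z-score, which can be read as non-binding when negative. The arrays, 3228 of them, came from the Consortium for Functional Glycomics database and were retained only where the protein sequence was available. Z-scores were averaged across arrays of the same protein sequence at different concentrations or buffers and across linkers.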
# [2] = target: Gal(b1-4)GlcNAc(b1-2)[Gal(b1-4)GlcNAc(b1-6)]Man(a1-6)[GlcNAc(b1-4)][Gal(b1-4)GlcNAc(b1-2)Man(a1-3)]Man(b1-4)GlcNAc(b1-4)GlcNAc
# Method in brief: as §1
# [3] = target: Gal(b1-4)GlcNAc(b1-2)[Gal(b1-4)GlcNAc(b1-6)]Man(a1-6)[GlcNAc(b1-4)][Gal(b1-4)GlcNAc(b1-2)[Gal(b1-4)GlcNAc(b1-4)]Man(a1-3)]Man(b1-4)GlcNAc(b1-4)[Fuc(a1-6)]GlcNAc
# Method in brief: as §1
# [4] = target: Gal(b1-4)GlcNAc(b1-3)Gal(b1-3)GalNAc
# Method in brief: as §1
# [5] = target: Gal(b1-4)GlcNAc(b1-3)Gal(b1-3)GlcNAc
# Method in brief: as §1
# [6] = target: Gal(b1-4)GlcNAc(b1-3)Gal(b1-4)Glc
# Method in brief: as §1
# [7] = target: Gal(b1-4)GlcNAc(b1-3)Gal(b1-4)GlcNAc
# Method in brief: as §1
# [8] = target: Gal(b1-4)GlcNAc(b1-3)Gal(b1-4)GlcNAc(b1-2)Man(a1-3)[Gal(b1-4)GlcNAc(b1-3)Gal(b1-4)GlcNAc(b1-2)Man(a1-6)]Man(b1-4)GlcNAc(b1-4)GlcNAc
# Method in brief: as §1
# [9] = target: Gal(b1-4)GlcNAc(b1-3)Gal(b1-4)GlcNAc(b1-2)Man(a1-3)[Gal(b1-4)GlcNAc(b1-3)Gal(b1-4)GlcNAc(b1-2)Man(a1-6)]Man(b1-4)GlcNAc(b1-4)[Fuc(a1-6)]GlcNAc
# Method in brief: as §1
# [10] = target: Gal(b1-4)GlcNAc(b1-3)Gal(b1-4)GlcNAc(b1-2)[Gal(b1-4)GlcNAc(b1-3)Gal(b1-4)GlcNAc(b1-6)]Man(a1-6)[Gal(b1-4)GlcNAc(b1-3)Gal(b1-4)GlcNAc(b1-2)Man(a1-3)]Man(b1-4)GlcNAc(b1-4)GlcNAc
# Method in brief: as §1
# [11] = target: Gal(b1-4)GlcNAc(b1-3)Gal(b1-4)GlcNAc(b1-2)[Gal(b1-4)GlcNAc(b1-3)Gal(b1-4)GlcNAc(b1-6)]Man(a1-6)[Gal(b1-4)GlcNAc(b1-3)Gal(b1-4)GlcNAc(b1-2)Man(a1-3)]Man(b1-4)GlcNAc(b1-4)[Fuc(a1-6)]GlcNAc
# Method in brief: as §1
# [12] = target: Gal(b1-4)GlcNAc(b1-3)Gal(b1-4)GlcNAc(b1-3)Gal(b1-4)GlcNAc
# Method in brief: as §1
# [13] = target: Gal(b1-4)GlcNAc(b1-3)Gal(b1-4)GlcNAc(b1-3)Gal(b1-4)GlcNAc(b1-2)Man(a1-3)[Gal(b1-4)GlcNAc(b1-3)Gal(b1-4)GlcNAc(b1-3)Gal(b1-4)GlcNAc(b1-2)Man(a1-6)]Man(b1-4)GlcNAc(b1-4)GlcNAc
# Method in brief: as §1
# [14] = target: Gal(b1-4)GlcNAc(b1-3)Gal(b1-4)GlcNAc(b1-3)Gal(b1-4)GlcNAc(b1-2)Man(a1-3)[Gal(b1-4)GlcNAc(b1-3)Gal(b1-4)GlcNAc(b1-3)Gal(b1-4)GlcNAc(b1-2)Man(a1-6)]Man(b1-4)GlcNAc(b1-4)[Fuc(a1-6)]GlcNAc
# Method in brief: as §1
# [15] = target: Gal(b1-4)GlcNAc(b1-3)Gal(b1-4)GlcNAc(b1-3)Gal(b1-4)GlcNAc(b1-2)[Gal(b1-4)GlcNAc(b1-3)Gal(b1-4)GlcNAc(b1-3)Gal(b1-4)GlcNAc(b1-6)]Man(a1-6)[Gal(b1-4)GlcNAc(b1-3)Gal(b1-4)GlcNAc(b1-3)Gal(b1-4)GlcNAc(b1-2)Man(a1-3)]Man(b1-4)GlcNAc(b1-4)[Fuc(a1-6)]GlcNAc
# Method in brief: as §1
# [16] = target: Gal(b1-4)GlcNAc(b1-3)Gal(b1-4)GlcNAc(b1-3)Gal(b1-4)GlcNAc(b1-3)Gal(b1-4)GlcNAc(b1-2)Man(a1-3)[Gal(b1-4)GlcNAc(b1-3)Gal(b1-4)GlcNAc(b1-3)Gal(b1-4)GlcNAc(b1-3)Gal(b1-4)GlcNAc(b1-2)Man(a1-6)]Man(b1-4)GlcNAc(b1-4)GlcNAc
# Method in brief: as §1
# [17] = target: Gal(b1-4)GlcNAc(b1-3)Gal(b1-4)GlcNAc(b1-3)Gal(b1-4)GlcNAc(b1-3)Gal(b1-4)GlcNAc(b1-2)Man(a1-3)[Gal(b1-4)GlcNAc(b1-3)Gal(b1-4)GlcNAc(b1-3)Gal(b1-4)GlcNAc(b1-3)Gal(b1-4)GlcNAc(b1-2)Man(a1-6)]Man(b1-4)GlcNAc(b1-4)[Fuc(a1-6)]GlcNAc
# Method in brief: as §1
# [18] = target: Gal(b1-4)GlcNAc(b1-3)Gal(b1-4)GlcNAc(b1-3)Gal(b1-4)GlcNAc(b1-3)Gal(b1-4)GlcNAc(b1-2)[Gal(b1-4)GlcNAc(b1-3)Gal(b1-4)GlcNAc(b1-3)Gal(b1-4)GlcNAc(b1-3)Gal(b1-4)GlcNAc(b1-6)]Man(a1-6)[Gal(b1-4)GlcNAc(b1-3)Gal(b1-4)GlcNAc(b1-3)Gal(b1-4)GlcNAc(b1-3)Gal(b1-4)GlcNAc(b1-2)Man(a1-3)]Man(b1-4)GlcNAc(b1-4)[Fuc(a1-6)]GlcNAc
# Method in brief: as §1
# [19] = target: Gal(b1-4)GlcNAc(b1-3)Gal(b1-4)GlcNAc(b1-3)Gal(b1-4)GlcNAc(b1-3)Gal(b1-4)GlcNAc(b1-3)Gal(b1-4)GlcNAc(b1-2)Man(a1-3)[Gal(b1-4)GlcNAc(b1-3)Gal(b1-4)GlcNAc(b1-3)Gal(b1-4)GlcNAc(b1-3)Gal(b1-4)GlcNAc(b1-3)Gal(b1-4)GlcNAc(b1-2)Man(a1-6)]Man(b1-4)GlcNAc(b1-4)GlcNAc
# Method in brief: as §1
# [20] = target: Gal(b1-4)GlcNAc(b1-3)Gal(b1-4)GlcNAc(b1-3)Gal(b1-4)GlcNAc(b1-3)Gal(b1-4)GlcNAc(b1-3)Gal(b1-4)GlcNAc(b1-2)Man(a1-3)[Gal(b1-4)GlcNAc(b1-3)Gal(b1-4)GlcNAc(b1-3)Gal(b1-4)GlcNAc(b1-3)Gal(b1-4)GlcNAc(b1-3)Gal(b1-4)GlcNAc(b1-2)Man(a1-6)]Man(b1-4)GlcNAc(b1-4)[Fuc(a1-6)]GlcNAc
# Method in brief: as §1
# [21] = target: Gal(b1-4)GlcNAc(b1-3)Gal(b1-4)GlcNAc(b1-3)Gal(b1-4)GlcNAc(b1-3)Gal(b1-4)GlcNAc(b1-3)Gal(b1-4)GlcNAc(b1-2)[Gal(b1-4)GlcNAc(b1-3)Gal(b1-4)GlcNAc(b1-3)Gal(b1-4)GlcNAc(b1-3)Gal(b1-4)GlcNAc(b1-3)Gal(b1-4)GlcNAc(b1-6)]Man(a1-6)[Gal(b1-4)GlcNAc(b1-3)Gal(b1-4)GlcNAc(b1-3)Gal(b1-4)GlcNAc(b1-3)Gal(b1-4)GlcNAc(b1-3)Gal(b1-4)GlcNAc(b1-2)Man(a1-3)]Man(b1-4)GlcNAc(b1-4)[Fuc(a1-6)]GlcNAc
# Method in brief: as §1
# [22] = target: Gal(b1-4)GlcNAc(b1-3)Gal(b1-4)GlcNAc(b1-3)Gal(b1-4)GlcNAc(b1-3)Gal(b1-4)GlcNAc(b1-3)Gal(b1-4)GlcNAc(b1-3)Gal(b1-4)GlcNAc(b1-2)Man(a1-3)[Gal(b1-4)GlcNAc(b1-3)Gal(b1-4)GlcNAc(b1-3)Gal(b1-4)GlcNAc(b1-3)Gal(b1-4)GlcNAc(b1-3)Gal(b1-4)GlcNAc(b1-3)Gal(b1-4)GlcNAc(b1-2)Man(a1-6)]Man(b1-4)GlcNAc(b1-4)GlcNAc
# Method in brief: as §1
# [23] = target: Gal(b1-4)GlcNAc(b1-3)Gal(b1-4)GlcNAc(b1-3)GalNAc
# Method in brief: as §1
binder,measurement,setting,value
"HBHA-Rv (Mycobacterium tuberculosum), P0A5P6 (protein) MAENSNIDDIKAPLLAALGAADLALATVNELITNLRERAEETRTDTRSRVEESRARLTKLQEDLPEQLTELREKFTAEELRKAAEGYLEAATSRYNELVERGEAALERLRSQQSFEEVSARAEGYVDQAVELTQEALGTVASQTRAVGERAAKLVGIELPKKAAPAKKAAPAKKAAPAKKAAAKKAPAKKAAAKKVTQK",glycan array binding signal (z-score),[1],-0.269
same,glycan array binding signal (z-score),[2],-0.375
same,glycan array binding signal (z-score),[3],-0.428
same,glycan array binding signal (z-score),[4],-0.357
same,glycan array binding signal (z-score),[5],-0.107
same,glycan array binding signal (z-score),[6],0.371
same,glycan array binding signal (z-score),[7],-0.22
same,glycan array binding signal (z-score),[8],1.21
same,glycan array binding signal (z-score),[9],-0.435
same,glycan array binding signal (z-score),[10],0.835
same,glycan array binding signal (z-score),[11],-0.388
same,glycan array binding signal (z-score),[12],-0.052
same,glycan array binding signal (z-score),[13],-0.256
same,glycan array binding signal (z-score),[14],-0.449
same,glycan array binding signal (z-score),[15],-0.41
same,glycan array binding signal (z-score),[16],-0.448
same,glycan array binding signal (z-score),[17],-0.451
same,glycan array binding signal (z-score),[18],-0.444
same,glycan array binding signal (z-score),[19],-0.467
same,glycan array binding signal (z-score),[20],-0.442
same,glycan array binding signal (z-score),[21],-0.4
same,glycan array binding signal (z-score),[22],-0.343
same,glycan array binding signal (z-score),[23],-0.429
